From publication PMC2879411, “Molecular Basis for the Dual Function of Eps8 on Actin Dynamics: Bundling and Capping” (PLoS Biology, 2010)

Target: filamentous actin (F-actin), rabbit skeletal muscle (rabbit, UniProt P68135)
Experiment: negative-stain electron microscopy with helical 3D reconstruction; Eps8(535–821) on F-actin, 2% uranyl acetate, iterative helical real space refinement, difference map against undecorated F-actin
Settings: both partners purified

B1: Eps8([…]) (domain or fragment)
chain: not shown
stoichiometry N: 1
